Screen size: about 150,000 compounds; about 540 (0.36%) showed an effect of 50% or more. The list shows a part of the results.

This test deals with Plasmodium falciparum. The test is described as follows: Primary screen in NF54 nanoGlo assay, in single point, at 2uM, 72h; a lower Z score goes with more inhibition. The format is functional, Erythrocyte. The conditions noted are these: timepoint 72 hour.
One may read the % Inhibition as the relative decrease from the control value, in per cent. With `Cc1ccc(OCC(=O)Nc2ccc(S(=O)(=O)N(Cc3ccccc3)c3ccccc3)cc2)cc1`, the “% Inhibition” value is 19% and the Z score is on record as -2.23.

For `CC(CN1C(=O)c2cc(-c3ccco3)nn2CC1(C)C(=O)NC1CCCCCC1)c1ccccc1` (centres undefined), the “% Inhibition” value worked out at 1% and the Z score was -0.17.

For the compound `CCOC(=O)c1ccc(NC(=O)Cn2nc(-c3ccc(C)cc3)oc2=S)cc1`, the “% Inhibition” value is recorded as -35% and the Z score was 4.07.

Consider `Cn1cc(C(N)=O)cc1C(=O)N1CCC(C(=O)Nc2ccccc2)CC1`, for which the “% Inhibition” value is on record as -8% and the Z score amounted to 1.01.

Turning to `Cc1cc(C)cc(NC(=O)CCn2c(N3CCCCC3)nc3ccccc3c2=O)c1`, the “% Inhibition” value is -15% and the Z score is recorded as 1.43.

On to `CCc1noc(CC)c1Cc1nc(-c2cccc(C(=O)OC)c2)no1`, for which the “% Inhibition” value is -2% and the Z score was 0.36.

On to `Cc1noc(C2CN(C(=O)C3CCS(=O)(=O)C3)CC2c2ccccc2)n1` (centres undefined), for which the “% Inhibition” value is reported as 1% and the Z score is -0.11.

Take `COc1cc(F)c(NC(=O)CN(C)C)cc1OC`: the “% Inhibition” value was -3% and the Z score is 0.46.

With `O=C(CN1CCN(c2ccc3nc[nH]c(=O)c3n2)CC1)NC1CCCCC1`, the “% Inhibition” value turned out to be 0% and the Z score is given as -0.02.

Regarding `COC1CCN(c2nnc(-c3cc(C)oc3C)n2CC2CC2)CC1`, the “% Inhibition” value is on record as -3% and the Z score is reported as 0.51.

On to `COc1ccc([C@H]2NCCc3c2[nH]c2ccccc32)cc1COc1cccc(C)c1C`, for which the “% Inhibition” value is given as 7% and the Z score is -0.96.

In the case of `Cc1ccc(NC(=O)c2cc3nccc(-c4ccc(F)cc4)n3n2)nc1`, the “% Inhibition” value is recorded as 32% and the Z score was -0.37.

Turning to `Cn1nc(-c2ccccc2)c(CN(CC2CC2)C(=O)NC(C)(C)C)c1Oc1ccccc1F`, the “% Inhibition” value is recorded as -4% and the Z score is on record as 0.42.

For `Cc1nc(NC2CCCCC2)sc1C(=O)NCc1cccs1`, the “% Inhibition” value is 25% and the Z score is reported as -2.85.

As for `CC(C)Oc1ncc(Cl)cc1NC(=O)N1CC[S@@+]([O-])C(C)(C)CC1`, the “% Inhibition” value came out at 3% and the Z score is recorded as -0.46.

`CCCc1cc(=O)n(-c2ccc(C(=O)N3CC[C@H](N)C3)cc2)[nH]1`: the “% Inhibition” value was -4% and the Z score came to 0.74.

In the case of `CC(C)S(=O)(=O)CCCn1cnc(C(C)(C)C)n1`, the “% Inhibition” value is -2% and the Z score was found to be 0.22.

Take `CN=C(NC)NCc1cc2c(s1)CCC(C)(C)C2`: the “% Inhibition” value came out at 5% and the Z score is recorded as -0.74.

`O=C(CC1(O)CCCCC1)NCCc1ccc(C(F)(F)F)cn1`: the “% Inhibition” value was found to be 0% and the Z score amounted to 0.01.

As to `Cc1ccc(NC(=O)[C@H](Cc2ccccc2)NS(=O)(=O)c2ccc3c(c2)c(=O)n(C)c(=O)n3C)cc1C`, the “% Inhibition” value is -1% and the Z score came out at 0.12.

Take `O=C(NCc1ccccc1)C(F)(F)F`: the “% Inhibition” value is -2% and the Z score worked out at 0.24.

Turning to `CCOc1ccc2nc(NC(=O)c3cnc(OC4CCOCC4)c(Cl)c3)sc2c1`, the “% Inhibition” value was -1% and the Z score worked out at 0.21.

Take `O=C(N[C@H]1C[C@H]2OCC[C@@H]12)c1ccccc1N1CCS(=O)(=O)CC1`: the “% Inhibition” value was 12% and the Z score is recorded as -2.27.

Regarding `O=c1[nH]c(=O)n(Cc2cc(Cl)c3c(c2)OCCCO3)cc1Cl`, the “% Inhibition” value was -10% and the Z score stood at 1.92.

With `CC(=O)c1cnc(NCc2nc3cc(F)ccc3[nH]2)nc1C`, the “% Inhibition” value was -7% and the Z score is recorded as 1.26.

Take `C[C@@H](CCc1ccccc1)NC1CCC(O)CC1` (some centres undefined): the “% Inhibition” value is given as -18% and the Z score was 3.3.

Consider `Cc1nn(C(C)C)c(=O)n1Cc1ccc(S(C)(=O)=O)cc1`, for which the “% Inhibition” value is recorded as -2% and the Z score came out at 0.44.

Take `Cc1cc(-c2nc(-c3ccc(Br)o3)no2)no1`: the “% Inhibition” value was determined as 28% and the Z score is given as -3.22.

Turning to `CS(=O)(=O)N[C@@H]1CC[C@H]2CCOc3ccccc3C(=O)N3CCN(C4CCCC4)C[C@H]3C(=O)NC[C@H]1O2`, the “% Inhibition” value came to 2% and the Z score was -0.26.

As to `Cc1cc(C(=O)N2CC[C@@]3(CCCN(CC4CC4)C3=O)C2)c2c(C)noc2n1`, the “% Inhibition” value was -15% and the Z score was found to be 3.25.

For `CN(Cc1ccccc1)CC(C)(C)NC(=O)NC1CCC(O)CC1` (centres undefined), the “% Inhibition” value is reported as -15% and the Z score came to 2.32.

With `CCN1CCN(C[C@@H]2CN(c3cnc4ccccc4n3)C[C@@H]2CO)CC1`, the “% Inhibition” value is recorded as -6% and the Z score was 1.07.

`COc1c(C)cc(CNC[C@H]2CC[C@@H](CO)O2)cc1C`: the “% Inhibition” value is reported as -11% and the Z score is on record as 1.25.

`CCN1CC2(CCN(C(=O)c3ccn(C)n3)CC2)C[C@@H](c2ccccc2)C1=O`: the “% Inhibition” value is on record as -14% and the Z score worked out at 1.64.

Turning to `CC(C)n1nnc2cc(S(=O)(=O)N3CCC[C@H](C(=O)NCCc4c[nH]c5ccccc45)C3)ccc21`, the “% Inhibition” value was -19% and the Z score was 1.68.

Take `C[C@@H](Cc1cccnc1)NC(=O)c1coc(COc2ccccc2)n1`: the “% Inhibition” value is -1% and the Z score stood at 0.1.

For `O=C(NCc1ccco1)NCC1(c2ccccc2)CC1`, the “% Inhibition” value was -15% and the Z score turned out to be 1.71.

Take `CC1(C)C[C@@H](CN2CCC(Oc3cc(Cl)ccc3C(=O)N3CCCCC3)CC2)CCO1`: the “% Inhibition” value was -6% and the Z score stood at 0.85.

`COc1cc(Cl)ccc1C(=O)N1CCC2(CC1)CN(C)C[C@@H]2c1nnc(C(C)C)o1`: the “% Inhibition” value is listed as -4% and the Z score came out at 0.71.

For `CC[C@H]1COCCN1S(=O)(=O)c1c(C)nn(C)c1C`, the “% Inhibition” value is given as -11% and the Z score is given as 1.73.

Consider `Cc1ccccc1NC(=O)Cn1c(=O)n(Cc2ccc3c(c2)OCO3)c(=O)c2sccc21`, for which the “% Inhibition” value worked out at 8% and the Z score is recorded as -1.12.

Turning to `CN1CC[C@@H](c2nc(-c3cc(OC(F)F)ccc3F)no2)S1(=O)=O`, the “% Inhibition” value was found to be 0% and the Z score was -0.03.

These data come from ChEMBL document CHEMBL4888484, “Replenishing the malaria drug discovery pipeline: Screening and hit evaluation of the MMV Hit Generation Library 1 (HGL1) against asexual blood stage Plasmodium falciparum ,using a nano luciferase reporter read-out” (2022).
